Our source for the binding signal values is PMC6212790.

The list shows a part of the results. At the low end of the ranking the order means little.

For the test, the target named is T1, GST-Rok-C97-191 (UniProt O34857).
T1 sequence: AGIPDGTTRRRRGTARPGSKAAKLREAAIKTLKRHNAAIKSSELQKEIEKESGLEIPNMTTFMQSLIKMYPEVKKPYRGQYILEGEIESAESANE
As to the kind of experiment: protein binding microarray.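 Further: rank score from −0.5 (least bound) to 0.5 (best bound).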 Conditions: Rok is a gene silencer of Bacillus subtilis; high values mean tight binding; most listed sequences are background and not binding sites; double strand, one strand shown.
Consider ACCAGTAT, for which the binding signal amounted to 0.196 E-score.
Next, ACGTTTCC: -0.131 E-score; AAGTCAAC: -0.0762 E-score.
Next, ACGTGACC: -0.0609 E-score; GCTAAGTA: 0.227 E-score.
The figure for AGCTTGTA is 0.13 E-score.
For the sequence ACAGTTTC, the binding signal is -0.0459 E-score.
The figure for ACCTTTAC is 0.0906 E-score; for ATAATTTA it is 0.354 E-score.
The figure for AGCCCGAA is 0.00241 E-score; for CTGATAGC it is 0.125 E-score; for CAGACACG it is -0.0887 E-score.
The figure for ACGCCCTG is -0.35 E-score; for AATTCACT it is 0.168 E-score; for CCACTGAC it is -0.0216 E-score.
Regarding ATGTCAAG, the binding signal was -0.0311 E-score.
The figure for ACTAGTAT is 0.409 E-score; for ACTCAGTA it is 0.227 E-score.
The figure for ACATCGTC is 0.00981 E-score; for AAAAGCTT it is 0.0543 E-score; for CACTTGCA it is -0.00496 E-score.
The figure for GACTCTCC is -0.187 E-score.
Regarding CGAAACTC, the binding signal came to 0.0357 E-score.
The figure for GAGGTGCA is -0.184 E-score.
The figure for AACACTAA is 0.0512 E-score.
Next, AGAAAGTG: 0.21 E-score; CCAACAAA: 0.0597 E-score.
CGCGAACG: the binding signal was -0.0781 E-score.
The figure for CACCAGAA is 0.0326 E-score.
For the sequence AGCTGTAG, the binding signal turned out to be 0.038 E-score.
In the case of GAAATTGA, the binding signal is 0.0348 E-score.
Next, ACATCTCG: -0.0898 E-score; CATTCGGG: -0.0955 E-score; ATGGCACC: -0.0965 E-score.
With ACCACTAA, the binding signal came out at 0.147 E-score.
CGGTATTA showed a binding signal of 0.254 E-score.
The figure for ATTCAATC is 0.12 E-score.
The figure for TTAAAGAA is -0.0125 E-score; for ACGGCTGG it is -0.189 E-score; for GGGGTCAC it is -0.41 E-score.
Next, CATAACAC: 0.105 E-score.
Take TCGAGACA: the binding signal is -0.109 E-score.
Turning to CCTCGTGA, the binding signal was -0.0659 E-score.
For AAGCCTTA, the binding signal was -0.0626 E-score.
The figure for ACTAGAGC is 0.108 E-score.
The figure for ACACCAGC is -0.211 E-score; for ATCGGTGA it is -0.0895 E-score; for TATATCAA it is 0.231 E-score.
Next, CTGCGAGC: -0.0742 E-score; AACCGCAA: -0.0997 E-score.
Turning to AAGCAGGT, the binding signal is -0.000664 E-score.
Turning to ACAGGAGT, the binding signal was -0.0353 E-score.
The figure for GCGGCGCA is -0.292 E-score; for AGTCTACG it is 0.0152 E-score; for AAGCGAAT it is -0.138 E-score.
The figure for CTCACCAC is -0.106 E-score; for GAGCAATA it is 0.158 E-score.
Next, ATCCTTGA: 0.0467 E-score; GCTTCACA: -0.0519 E-score.
In the case of GATTAGCC, the binding signal was -0.0619 E-score.
The figure for CGGGCCTC is -0.254 E-score; for AGACCCCA it is -0.298 E-score.
Next, ATCTCGCG: 0.0418 E-score; GCAGGCAA: -0.117 E-score.
Next, GCCGACTA: -0.0903 E-score; GGAGACAC: -0.193 E-score.
For AGATCTCC, the binding signal turned out to be 0.0315 E-score.
The figure for CTGCAAAA is 0.0588 E-score; for GGTCGTAA it is 0.185 E-score.
Next, ACTCGGCC: -0.106 E-score; CGGACCAA: -0.0547 E-score.
The figure for GCCGAGCC is -0.313 E-score; for CGAACGGC it is -0.176 E-score.
For the sequence CCGTGATC, the binding signal is -0.0994 E-score.
As for CGTCGCGA, the binding signal is -0.0343 E-score.
Next, CGCTACTA: 0.326 E-score; CACGGCGG: -0.192 E-score; ACTCGCAT: 0.0369 E-score.
Regarding GAGTACAC, the binding signal was -0.0815 E-score.
Next, GGCCGCAA: -0.169 E-score.
Next, GAACAGAA: 0.109 E-score; ACTTTCCG: 0.0104 E-score; AATGCCCC: -0.198 E-score.
For CGTAGTAA, the binding signal is 0.205 E-score.
Next, CACCTACC: 0.112 E-score.
The figure for CACACGGA is -0.234 E-score; for CGTATGAC it is -0.18 E-score.
Turning to GATTACGC, the binding signal was -0.13 E-score.
The figure for CCAAGGGC is -0.254 E-score.
Next, ATATCGAA: 0.192 E-score.
Next, CCAGCACG: -0.0496 E-score; ACCTGGGC: -0.0242 E-score.
For CGCCATCC, the binding signal is -0.127 E-score.
ACGTCGTA showed a binding signal of 0.0376 E-score.
For the sequence ATCGGCGG, the binding signal was -0.258 E-score.
The figure for TGGCAAAA is 0.122 E-score.
Next, CTCTCTTA: -0.197 E-score; ATTATGTA: 0.354 E-score.
The figure for ATTGAGCC is -0.168 E-score.
Consider CGCCACTA, for which the binding signal is -0.0108 E-score.
Next, ATGGTCCA: -0.0452 E-score.
The figure for CCCTTTTA is -0.101 E-score; for CAACTATA it is 0.277 E-score; for GTGGAGGA it is -0.201 E-score.
Take GCGTACTA: the binding signal stood at 0.168 E-score.
The figure for ACTTGCGG is 0.0115 E-score.
Next, CTCGTCCC: -0.227 E-score; ACGACAGA: -0.103 E-score.
The figure for CGATTCCA is -0.0275 E-score; for ATGATCTC it is -0.0768 E-score; for GACGTGGA it is -0.165 E-score.
The sequence AAATTAGC returned a binding signal of 0.224 E-score.
Next, AATGCGCA: -0.0905 E-score.
Next, TATGGCAA: 0.0295 E-score; AAGGGACT: -0.135 E-score.
With CAAAGCGC, the binding signal was -0.0715 E-score.
Next, TGTCTAAA: 0.0873 E-score.
The figure for TGAGACCA is -0.0997 E-score; for ACCACCGC it is -0.129 E-score.
In the case of AAACAATA, the binding signal was determined as 0.286 E-score.
Next, AACTCCCC: -0.117 E-score; ATAAACGG: 0.19 E-score; GTCTCGGA: -0.0689 E-score.
TATTCACA showed a binding signal of 0.0873 E-score.
The figure for GCAAACGA is -0.0523 E-score; for ATCCATGG it is 0.113 E-score.
Next, CATTAAGG: -0.0335 E-score; CTGTAATA: 0.334 E-score; CCTGGAAG: -0.186 E-score.
With GGAGTATA, the binding signal was 0.0864 E-score.
Next, AGGCAAAG: -0.302 E-score.
Sequence CTTTAATC came in with a binding signal of 0.0488 E-score.
Consider AATAACAT, for which the binding signal was -0.0349 E-score.
As for AATATCGG, the binding signal turned out to be 0.258 E-score.
Sequence CGCGCTGA yielded a binding signal of 0.0861 E-score.
As to ACCAATTG, the binding signal stood at 0.178 E-score.
The figure for AAGCACAG is -0.113 E-score; for TACTGGGA it is 0.185 E-score.
Next, AAAACGGT: 0.107 E-score; ACGGGCGG: -0.308 E-score.
Next, CAAGAACG: -0.0599 E-score.
Consider GGTATCCA, for which the binding signal was -0.00716 E-score.
Next, ATCTAAAG: 0.0158 E-score; ATATCTGG: 0.0784 E-score; AGATGCCG: -0.0221 E-score.
On to GCTAGTCA, for which the binding signal was 0.00343 E-score.
Next, ATAAAGGA: -0.135 E-score.
Consider AGCCTAAC, for which the binding signal is -0.0286 E-score.
Next, CTACTTAC: 0.222 E-score; CCCACAAG: -0.133 E-score.
The figure for ACGGTTTA is 0.0675 E-score; for CCTCCCCG it is -0.281 E-score; for ATTCTATG it is 0.088 E-score.
Take AGGACTAA: the binding signal is -0.023 E-score.
Next, GATATGGC: -0.025 E-score.
Next, ACTCTAGA: 0.152 E-score; ACCTCATC: -0.102 E-score.
Next, GACGCGAA: -0.151 E-score; CGCTACCC: -0.0512 E-score; ACGTAGGC: -0.218 E-score.
Take ACCAGTCT: the binding signal was -0.0619 E-score.
Next, GAGGGGTA: -0.061 E-score; AGAGCAAT: -0.00294 E-score.
AATCTGAG: the binding signal is -0.00789 E-score.
The figure for CGTTACAA is 0.159 E-score; for ATAGTAAA it is 0.357 E-score.
Next, GCGGATCA: -0.15 E-score; AACCCCTT: -0.234 E-score; GGGTAAGA: -0.111 E-score.
On to ACTTCCCG, for which the binding signal was -0.0833 E-score.
The figure for CCGATGGC is -0.232 E-score.
The figure for CACTCTAG is -0.019 E-score; for CCCTAGTC it is -0.246 E-score.
With ATTCCGAC, the binding signal was found to be 0.0397 E-score.
Next, CTACAACA: 0.306 E-score.
The figure for GAGCGGGC is -0.32 E-score; for AGTCCAAG it is -0.023 E-score; for ATCTGATC it is -0.0568 E-score.
Consider AAGGCCGG, for which the binding signal was -0.208 E-score.
Sequence ATAATGTG showed a binding signal of 0.167 E-score.
The figure for AGGAAAAC is -0.105 E-score; for TGAGGGAA it is 0.0918 E-score.
The figure for CTTTCGTA is -0.0555 E-score.
The figure for GCCCGCGA is -0.314 E-score; for GTGTACAA it is 0.213 E-score; for AAGGGATC it is -0.238 E-score.
For the sequence GAGTATCC, the binding signal is -0.0968 E-score.
Next, AAGAGCGC: -0.252 E-score.
Next, AAGCGGGT: -0.0644 E-score; GACCAACC: -0.102 E-score; GGTGCCTA: -0.184 E-score.
In the case of CGCTTCAA, the binding signal is -0.123 E-score.
For the sequence ATGCAAAT, the binding signal was found to be 0.221 E-score.
In turn, ATCGTACA displayed a binding signal of 0.178 E-score.
The figure for GGTCTATA is -0.075 E-score; for ACTAAACC it is -0.0801 E-score; for CTCTCTTC it is -0.205 E-score.
With ACCGAAAC, the binding signal is -0.0101 E-score.
The figure for CATGATAG is 0.108 E-score; for TACTGCTA it is 0.334 E-score; for CTACACAA it is 0.234 E-score.
The figure for ACCAGCCA is -0.264 E-score.
Next, GAGCCCAC: -0.219 E-score.
With CCCCTTAG, the binding signal is -0.292 E-score.
Take AGCGCTGG: the binding signal was -0.00569 E-score.
The figure for TCGCTACA is -0.0629 E-score.
The figure for GAAATGCC is -0.0949 E-score.
The figure for ACGAATGC is -0.141 E-score; for ATCACTTC it is 0.00542 E-score.
Sequence GACCATAC had a binding signal of 0.14 E-score.
On to AGGCAAAC, for which the binding signal was -0.104 E-score.
The figure for AAGCCTCC is -0.276 E-score.
The figure for GTGAAGTA is 0.066 E-score; for GCGCATGA it is -0.138 E-score; for CAGCACTG it is -0.198 E-score.
As for ACAACTGA, the binding signal was -0.0786 E-score.
With CAACAAAA, the binding signal is 0.13 E-score.
For the sequence AAGAACGT, the binding signal was 0.0755 E-score.
Next, AGTTACGC: 0.0861 E-score.
